Experimental data as given in the RNAGym collection of RNA variant scans (doi:10.1093/nar/gkz1192).
Read counts are not given, so values of variants with three or more changes are uncertain.

B1: CPEB3 Ribozyme (parent)
chain: UAACAGGGGGCCACAGCAGAAGCGUUCACGUCGCAGCCCCUGUCAGAUUCUGGUGAAUCUGCGAAUUCUGCUGUAUAUCUC

Variants of: B1
Assay: self-cleavage, relative activity (ratio to wild type); higher = more cleavage; in vitro, sequencing
Summary of the method: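 Barcoded CPEB3 ribozyme mutants, produced by rounds of error-prone PCR, self-cleaved while being transcribed with T7 RNA polymerase for 5 hours at 37°C and during a subsequent 15 min DNase I step before EDTA was added. Sequencing of template-switched cDNA on Illumina gave cleaved and total reads, and DNA sequencing assigned barcodes to variants. Each variant's relative activity is its cleaved/total read fraction divided by the unmutated ribozyme's fraction, averaged across three batches. A variant needed a minimum of 5 reads.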

Q: Which self-cleavage does the source give for UAACAGGGGGCCACAGCAGAAGCGUACACGUCGCAGCCCCUGUCAGAUUCUGGUGAACCUGCGGUUUCUGCUGUAUAUCUC here?
A: 0.17

Q: For UAACAGGGGGCCACAGCAGAAGCGUACACGUCGCAGCCCCUGUCAGAUUCUGGUGAACCAGCGAACUCUGCUGUAUAUCUC, which self-cleavage is on record?
A: 0.19

Q: With UAACAGGGGGCCACAGCAGAAGCGUACACGUCGCAGCCCCUGUCAGAUUCUGGUGAAUCAGCGAAUUCUGCUGUAUAUCUU as the variant, how does the self-cleavage read?
A: 0.42

Q: Which self-cleavage does the source give for UAACAGGGGGCCACAGCAGAAGCGUACACGUCGCAGCCCCUGUCAGAUUCUGGUGAAUCAUCGAAUUCUGCUGUAUAUCUC here?
A: 0.21

Q: For UAACAGGGGGCCACAGCAGAAGCGUACACGUCGCAGCCCCUGUCAGAUUCUGGUGAAUCAGCGAAUUCCGCUGUAUAUCUC, which self-cleavage is on record?
A: 0.3

Q: Which self-cleavage does the source give for UAACAGGGGGCCACAGCAGAAGCGUACACGUCGCAGCCCCUGUCAGAUUCUGGUGAAUCCGCGACUUCUGCUGUAUAUCUC here?
A: 0.36

Q: Which self-cleavage does the source give for UAACAGGGGGCCACAGCAGAAGCGUACACGUCGCAGCCCCUGUCAGAUUCUGGUGAAUCCGCAAAUUCUGCUGUAUAUCUC here?
A: 0.48

Q: With UAACAGGGGGCCACAGCAGAAGCGUACACGUCGCAGCCCCUGUCAGAUUCUGGUGAAUCGGCGAAUUCUGCUGUUUAUCUC as the variant, how does the self-cleavage read?
A: 0.35

Q: For UAACAGGGGGCCACAGCAGAAGCGUACACGUCGCAGCCCCUGUCAGAUUCUGGUGAAUCGGCGAAUUCUUCUGUAUACCUC, which self-cleavage is on record?
A: 0.12

Q: With UAACAGGGGGCCACAGCAGAAGCGUACACGUCGCAGCCCCUGUCAGAUUCUGGUGAAUCUGCGAAUACUGCGGUACAUCCC as the variant, how does the self-cleavage read?
A: 0.21

Q: With UAACAGGGGGCCACAGCAGAAGCGUACACGUCGCAGCCCCUGUCAGAUUCUGGUGAAUCUGCGAAUUCCGCUGUAUACCUC as the variant, how does the self-cleavage read?
A: 0.74

Q: Which self-cleavage does the source give for UAACAGGGGGCCACAGCAGAAGCGUACACGUCGCAGCCCCUGUCAGAUUCUGGUGAAUCUGCGAAUUCUGCAGUAUAACUC here?
A: 0.86

Q: For UAACAGGGGGCCACAGCAGAAGCGUACACGUCGCAGCCCCUGUCAGAUUCUGGUGAAUCUGCGAAUUCUGCCGUAUACCUC, which self-cleavage is on record?
A: 0.99

Q: With UAACAGGGGGCCACAGCAGAAGCGUACACGUCGCAGCCCCUGUCAGAUUCUGGUGAAUCUGCGAAUUCUGCGGUAUACCUC as the variant, how does the self-cleavage read?
A: 0.73

Q: With UAACAGGGGGCCACAGCAGAAGCGUACACGUCGCAGCCCCUGUCAGAUUCUGGUGAAUCUGCGAAUUCUGCUGCAUAACUC as the variant, how does the self-cleavage read?
A: 1.26

Q: For UAACAGGGGGCCACAGCAGAAGCGUACACGUCGCAGCCCCUGUCAGAUUCUGGUGAAUCUGCGAAUUCUGCUGUAAAUCCC, which self-cleavage is on record?
A: 1.06

Q: Which self-cleavage does the source give for UAACAGGGGGCCACAGCAGAAGCGUACACGUCGCAGCCCCUGUCAGAUUCUGGUGAAUCUGCGAAUUCUGCUGUACACCUC here?
A: 0.93

Q: With UAACAGGGGGCCACAGCAGAAGCGUCCCCGUCGCGGCCCCUGUCAGAUUCUGGUGAAUCUGCGAAUUCUGCUGUAUAUCUC as the variant, how does the self-cleavage read?
A: 0.25

Q: With UAACAGGGGGCCACAGCAGAAGCGUCCCCGUCGCGGCCCCUGUCAGAUUCUGGUGAACCUGCGAAUUCUGCUGUAUAUCUC as the variant, how does the self-cleavage read?
A: 0.17

Q: For UAACAGGGGGCCACAGCAGAAGCGUCCCCGUCGCUGCCCCUGUCAGAUUCUGGUGAGUCUGCGAAUACUGCAGUAUAUCUC, which self-cleavage is on record?
A: 0.06

Q: For UAACAGGGGGCCACAGCAGAAGCGUCCCCGCCGCAGCCCCUGUCAGAUUCUGGUGAAUCUGCGGAUUCUGCCGUAUAUCUC, which self-cleavage is on record?
A: 0.08

Q: With UAACAGGGGGCCACAGCAGAAGCGUCCCCGUCGCAGCCCCGGUCGGAUUCUGGUGAAUCGGCGAAUUCUGCUGUAUAUCUC as the variant, how does the self-cleavage read?
A: 0.33

Q: With UAACAGGGGGCCACAGCAGAAGCGUCCCCGUCGCAGCCCCUGCCAGAUUCUGGUGAAUCUGCGAAUUCUGCUGUAUAUCUC as the variant, how does the self-cleavage read?
A: 0.24

Q: For UAACAGGGGGCCACAGCAGAAGCGUCCCCGUCGCAGCCCCUGUCAGACUCUGGCGAAUCUGCGAAUCCUGCUGUAUGUCUC, which self-cleavage is on record?
A: 0.12

Q: With UAACAGGGGGCCACAGCAGAAGCGUCCGCGUCGCGGCCCCUGUCGGAUUCUGGAGAAUCUGCGAAUUCUGCCGUAUAUUUC as the variant, how does the self-cleavage read?
A: 0.32

Q: With UAACAGGGGGCCACAGCAGAAGCGUCCGCGUCGCGGCCCUUGUCAGAUUCUGGUGAAUCUGCGAAUUCUGCUGUAUAUCUC as the variant, how does the self-cleavage read?
A: 0.19

Q: For UAACAGGGGGCCACAGCAGAAGCGUCCGCGUCGCGGCCCCAGUCAGAUUCUGGUUAAUCUGCGAUUUCUGCUGUAUAUCUC, which self-cleavage is on record?
A: 0.11

Q: With UAACAGGGGGCCACAGCAGAAGCGUCCGCGUCGCGGCCCCUGUCAGAUCCUGGUGAAUCUGCGAAUUCUGCUGUAUAUCUC as the variant, how does the self-cleavage read?
A: 0.18

Q: With UAACAGGGGGCCACAGCAGAAGCGUCCGCGUCGCGGCCCCUGUCAGAUUCAGGUGAAUCUGCGAGCUGUGCUGUAUAUCUC as the variant, how does the self-cleavage read?
A: 0.13

Q: For UAACAGGGGGCCACAGCAGAAGCGUCCGCGUCGCGGCCCCUGUCAGAUUCUGGCGAAUCUGCGAAUUCUGCUGUAUAUCCC, which self-cleavage is on record?
A: 0.45

Q: With UAACAGGGGGCCACAGCAGAAGCGUCCGCGUCGCUGCCCCCGUCAGAUUCUGGUGAAUCUGCGAAUUCUGCCGUAUAUCUC as the variant, how does the self-cleavage read?
A: 0.29

Q: For UAACAGGGGGCCACAGCAGAAGCGUCCGCGUCGCAGCCCCUGUCAGCUUCUGGUGAAUCUGCGAAUUCCGCUGUUUAUCUC, which self-cleavage is on record?
A: 0.04

Q: For UAACAGGGGGCCACAGCAGAAGCGUCCGCGUCGCAGCCCCUGUCAGAUUCUGGUGUAUCUGCGAAUUCUGCUGUAUAUCUC, which self-cleavage is on record?
A: 0

Q: For UAACAGGGGGCCACAGCAGAAGCGUCCGCGUCGCAGCCCCUGUCAGAUUCUGGUGAAUCUGCGACUUCUGCUGUAUAUCUC, which self-cleavage is on record?
A: 0.1
